Common to all, as to test: Primary Screen for Target Class Profiling of Small Molecule Inhibitors of Methyltransferases
Experiment [1] concerns the target Glycine N-methyltransferase (Homo sapiens) (UniProt Q14749). Conditions: purified enzyme, MTase-Glo SAH luminescence; measured here: GNMT inhibition; at 40 µM; stronger effect = lower value. The essentials:
(§1)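 Each enzyme was reacted with SAM and its substrate, with compounds tested once at 40 uM; SAH formed was read by MTase-Glo luminescence.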

The target of experiment [2] is Guanidinoacetate N-methyltransferase (Homo sapiens) (UniProt Q14353). The settings on record: purified enzyme, MTase-Glo SAH luminescence; measured here: GAMT inhibition; at 40 µM; stronger effect = lower value. The essentials:
as §1

In experiment [3] the target is Histamine N-methyltransferase (Homo sapiens) (UniProt P50135). Conditions: purified enzyme, MTase-Glo SAH luminescence; measured here: HNMT inhibition; at 40 µM; stronger effect = lower value. The procedure, abridged: as §1
In experiment [4] the target is Nicotinamide N-methyltransferase (Homo sapiens) (UniProt P40261). The settings on record: purified enzyme, MTase-Glo SAH luminescence; measured here: NNMT inhibition; at 40 µM; stronger effect = lower value. The procedure, abridged:
as §1

In experiment [5] the target is Phenylethanolamine N-methyltransferase (Homo sapiens) (UniProt P11086). The settings on record: purified enzyme, MTase-Glo SAH luminescence; measured here: PNMT inhibition; at 40 µM; stronger effect = lower value. The procedure, abridged: as §1

The other results are listed elsewhere or left out. The main result of the screen is listed elsewhere. These columns were measured beside it and carry no call.
% is set by controls: 0 for no effect and ±100 for the full control effect.

Regarding `CCCN1C(=O)c2c(-n3cccc3)c3cc(C)ccc3n2CC1(C)C(=O)NC1CCCCC1` (stereo not given), the activity change, negative = inhibition in experiment [1] is -6.78%; in experiment [2] it was -2.61%; in experiment [3] it was -6.49%; in experiment [4] it was -21.3%; in experiment [5], -5.66%.

For the molecule `CCOc1ccccc1CN1C(=O)c2cc(C(C)(C)C)nn2CC1(C)C(=O)NC1CCCCCC1` (stereo not given), the activity change, negative = inhibition is 2.63% in experiment [1]; 3.75% in experiment [2]; 2.68% in experiment [3]; 4.95% in experiment [4]; -1.68% in experiment [5].

`COC(=O)c1ncn2c1C(=O)N(Cc1ccc(C)o1)C(C)(C(=O)NC1CCCCC1)C2` (stereo not given): the activity change, negative = inhibition in experiment [1] is 0.26%; in experiment [2], 2.15%; in experiment [3] it was -3.27%; in experiment [4], 9.13%; in experiment [5] it was 0.671%.

In the case of `CC(C)CCNC(=O)C1(C)Cn2c(ccc2-c2ccco2)C(=O)N1Cc1ccccc1F` (stereo not given), the activity change, negative = inhibition in experiment [1] is 2.21%; in experiment [2], 0.6%; in experiment [3], 8.1%; in experiment [4], 4.3%; in experiment [5] it was -1.29%.

For the molecule `Cc1ccc(-c2noc([C@@H]3CCCN3C(=O)CCCc3ccccc3)n2)cc1`, the activity change, negative = inhibition is -6.92% in experiment [1]; -1.01% in experiment [2]; 0.353% in experiment [3]; -10.8% in experiment [4]; -4.74% in experiment [5].

With `COc1cccc(NC(=O)Cn2c(=O)oc3cc(S(=O)(=O)N4CCCC4)ccc32)c1`, the activity change, negative = inhibition in experiment [1] is -6.74%; in experiment [2] it was 1.75%; in experiment [3] it was -4.3%; in experiment [4] it was 2.87%; in experiment [5], -42%.

In the case of `CC(C)CCn1c(=O)c2ccc(C(=O)NC3CCCC3)cc2n2c(=O)n(Cc3cccc(Cl)c3)nc12`, the activity change, negative = inhibition in experiment [1] was found to be 7.9%; in experiment [2] it was 0.75%; in experiment [3], 13%; in experiment [4], 10.2%; in experiment [5], 11.3%.

`C[C@H](C(=O)N1Cc2ccccc2CC2(CCN(Cc3ccncc3)C2)C1)c1ccccc1` (stereo not given in full): the activity change, negative = inhibition is -8.03% in experiment [1]; -8.76% in experiment [2]; -12% in experiment [3]; -22.4% in experiment [4]; 9.59% in experiment [5].

Take `CN(Cc1ccc(-c2ccccc2)cc1)C(=O)C1CC1`: the activity change, negative = inhibition in experiment [1] was -14.7%; in experiment [2], -12.9%; in experiment [3] it was -12.8%; in experiment [4] it was -21.3%; in experiment [5] it was -13.6%.

For `CC[C@H](NC(=O)[C@H](CS(=O)(=O)CC1CC1)N[C@@H](c1ccc(F)cc1)C(F)(F)F)C(=O)C(=O)NC1CC1`, the activity change, negative = inhibition is 2.36% in experiment [1]; 9.36% in experiment [2]; 3.28% in experiment [3]; -13.7% in experiment [4]; -6.75% in experiment [5].

In the case of `C[C@@H]1C[C@@H](O)[C@@]23CO[C@]2(CO)C[C@@H](O)CC3[C@@]12CC(c1ccoc1)OC2=O` (stereo not given in full), the activity change, negative = inhibition in experiment [1] is 1.97%; in experiment [2], -0.136%; in experiment [3] it was 8.63%; in experiment [4] it was -8.77%; in experiment [5], 5.91%.

Turning to `CN1C(=O)N(C)C2(CCN(CCc3ccccc3)C2)C1=O` (stereo not given), the activity change, negative = inhibition in experiment [1] was 3.59%; in experiment [2], 0.394%; in experiment [3] it was 0.944%; in experiment [4], 0.671%; in experiment [5], -2.52%.

Consider `O=c1n(CC2CC2)nc2n1CCN(C1CCCC1)CC2`, for which the activity change, negative = inhibition in experiment [1] is -3.24%; in experiment [2], -4.33%; in experiment [3], -0.604%; in experiment [4], -4.59%; in experiment [5], -18.8%.

Turning to `CC(CN1C(=O)c2cc3sccc3n2CC1(C)C(=O)NC1CCCCCCC1)c1ccccc1` (stereo not given), the activity change, negative = inhibition was 1.97% in experiment [1]; 0.538% in experiment [2]; 5.86% in experiment [3]; 0.763% in experiment [4]; 2.39% in experiment [5].

On to `CC1(C(=O)N2CCC(C3CCN(S(C)(=O)=O)CC3)C2)CCOCC1` (stereo not given), for which the activity change, negative = inhibition in experiment [1] is -0.31%; in experiment [2], 0.077%; in experiment [3] it was 2.79%; in experiment [4], -6.86%; in experiment [5] it was -3.23%.

On to `COc1ccc(CN2C(=O)c3ccc(-c4ccco4)n3CC2(C)C(=O)NCc2ccc(Cl)cc2)c(OC)c1` (stereo not given), for which the activity change, negative = inhibition in experiment [1] was -9.38%; in experiment [2], -5.43%; in experiment [3], 3.07%; in experiment [4], -7.99%; in experiment [5], -6.37%.

On to `C[C@@H]1[C@H]2[C@H](O[C@@H]3O[C@H](CO)[C@@H](O)[C@H](O)[C@H]3O)OC=C(C(=O)O)[C@H]2C[C@@H]1O`, for which the activity change, negative = inhibition in experiment [1] was 42.1%; in experiment [2] it was 38.4%; in experiment [3], 13.9%; in experiment [4] it was 26.5%; in experiment [5], 16.1%.

As for `Cc1ccc(CNC(=O)C2(C)Cn3nc(C(=O)NCCN4CCOCC4)cc3C(=O)N2C)cc1` (stereo not given), the activity change, negative = inhibition in experiment [1] came out at 5.6%; in experiment [2] it was 0%; in experiment [3], 7.29%; in experiment [4], 2.4%; in experiment [5], 4.65%.

As to `COc1ccccc1NC(=O)CSc1nnc2n(CCC(C)C)c(=O)c3ccccc3n12`, the activity change, negative = inhibition in experiment [1] is -3.62%; in experiment [2] it was 0%; in experiment [3] it was 4.77%; in experiment [4], -8.88%; in experiment [5], 1.1%.

For `CCCOc1ccc(CN2C(=O)c3cc4sccc4n3CC2(C)C(=O)NC2CCCCCC2)cc1` (stereo not given), the activity change, negative = inhibition in experiment [1] is -10.1%; in experiment [2], 2.62%; in experiment [3] it was -4.06%; in experiment [4], -6.56%; in experiment [5], -4.75%.

For `CC(C)CCNC(=O)Cn1c(=O)oc2cc(S(=O)(=O)N3CC(C)CC(C)C3)ccc21` (stereo not given), the activity change, negative = inhibition in experiment [1] is -11.1%; in experiment [2], -1.27%; in experiment [3], -3.67%; in experiment [4], -7.55%; in experiment [5], -15.9%.

For the molecule `CCCC1CCC(c2ccc(C(=O)COC(=O)C(Cc3c[nH]c4ccccc34)NC(=O)c3ccc(C(C)(C)C)cc3)cc2)CC1` (stereo not given), the activity change, negative = inhibition in experiment [1] was -4.83%; in experiment [2], 0.921%; in experiment [3], -13.5%; in experiment [4], -18%; in experiment [5] it was -8.73%.

For the molecule `CC(C)OCCCNC(=O)C1c2c(n(C)c3ccccc23)SCC(=O)N1c1ccc(Cl)cc1` (stereo not given), the activity change, negative = inhibition in experiment [1] is -0.679%; in experiment [2] it was -2.6%; in experiment [3], 3.39%; in experiment [4] it was -11%; in experiment [5], -3.48%.

In the case of `COc1cccc(CNC(=O)CSc2nnc3n(CCc4ccccc4)c(=O)c4ccccc4n23)c1`, the activity change, negative = inhibition was -2.39% in experiment [1]; 1.55% in experiment [2]; 5.74% in experiment [3]; -9.22% in experiment [4]; -1.62% in experiment [5].

As to `O=C1NC(=O)C(c2cn3c4c(cccc24)CCC3)C1c1c[nH]c2ccccc12` (stereo not given), the activity change, negative = inhibition in experiment [1] is -6.58%; in experiment [2], 0.634%; in experiment [3], 7.25%; in experiment [4], -19.4%; in experiment [5], -1.27%.

Take `CC(C)N(CCCCOCC(=O)NS(C)(=O)=O)c1cnc(-c2ccccc2)c(-c2ccccc2)n1`: the activity change, negative = inhibition in experiment [1] was -25%; in experiment [2] it was 0.011%; in experiment [3], -6.76%; in experiment [4], -26.1%; in experiment [5], -6.17%.

As for `CC1(C(=O)NC2CCCCCC2)Cn2c(nc3ccccc32)C(=O)N1Cc1cccc(Cl)c1` (stereo not given), the activity change, negative = inhibition in experiment [1] was -6.03%; in experiment [2], 1.68%; in experiment [3] it was -3.75%; in experiment [4], -0.59%; in experiment [5], -1.85%.

As for `COc1cccc(CNC(=O)c2ncn3c2C(=O)N(C2CC2)C(C)(C(=O)NCc2cccc(C)c2)C3)c1` (stereo not given), the activity change, negative = inhibition in experiment [1] turned out to be 1.87%; in experiment [2], 1.78%; in experiment [3], 13.4%; in experiment [4], 7.91%; in experiment [5] it was 9.59%.

As for `COc1ccc(S(=O)(=O)N2C[C@@H](F)C[C@H]2C(=O)N2CCOCC2)cc1`, the activity change, negative = inhibition was -7.03% in experiment [1]; -7.89% in experiment [2]; -5.32% in experiment [3]; -14.7% in experiment [4]; -7.94% in experiment [5].

The values above are taken from PubChem BioAssay AID1745853 (National Center for Advancing Translational Sciences (NCATS), 2022).
